# The other results are listed elsewhere or left out.
# B1: Als1 (Candida albicans), P46590 (protein)
# chain: KTITGVFDSFNSLTWSNAANYAFKGPGYPTWNAVLGWSLDGTSANPGDTFTLNMPCVFKYTTSQTSVDLTADGVKYATCQFYSGEEFTTFSTLTCTVNDALKSSIKAFGTVTLPIAFNVGGTGSSTDLEDSKCFTAGTNTVTFNDGDKDISIDVEFEKSTVDPSGYLYASRVMPSLNKVTTLFVAPQCENGYTSGTMGFSSSNGDVAIDCSNIHIGITKGLNDWNYPVSSESFSYTKTCTSNGIQIKYQNVPAGYRPFIDAYISATDVNQYTLAYTNDYTCAGSRLQSKPFTLRWTGYKNSDAGSNGIVIVATTRTVTDSTTAVTTLPFNPSVDKTKTIEILQPIPTTTITTSYVGVTTSYLTKTAPIGETATVIVDVPYHTTTTVTSEWTGTITTTTTRTNPTDSIDTVVVQVP
# Legend:
# Assay in all cases: glycan array binding signal (z-score within array); higher = stronger binding
# Conditions in all cases: glycan notation: IUPAC condensed, linker removed
# [1] = target: Neu5Ac(a2-3)Gal(b1-4)GlcNAc(b1-2)[Neu5Ac(a2-3)Gal(b1-4)GlcNAc(b1-4)]Man(a1-3)[GlcNAc(b1-4)][Neu5Ac(a2-3)Gal(b1-4)GlcNAc(b1-2)[Neu5Ac(a2-3)Gal(b1-4)GlcNAc(b1-6)]Man(a1-6)]Man(b1-4)GlcNAc(b1-4)GlcNAc
# Method in brief: (§1)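 From the Consortium for Functional Glycomics database, 3228 arrays were curated, keeping only those whose protein sequence was available. Binding is given as a within-array Z-score averaged across arrays sharing a protein sequence and across linkers. Negative Z-scores can be read as non-binding.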
# [2] = target: Neu5Ac(a2-3)Gal(b1-4)GlcNAc(b1-2)[Neu5Ac(a2-3)Gal(b1-4)GlcNAc(b1-4)]Man(a1-3)[GlcNAc(b1-4)][Neu5Ac(a2-3)Gal(b1-4)GlcNAc(b1-4)Man(a1-6)]Man(b1-4)GlcNAc(b1-4)GlcNAc
# Method in brief: as §1
# [3] = target: Neu5Ac(a2-3)Gal(b1-4)GlcNAc(b1-2)[Neu5Ac(a2-3)Gal(b1-4)GlcNAc(b1-6)]Man(a1-6)[Neu5Ac(a2-3)Gal(b1-4)GlcNAc(b1-2)Man(a1-3)]Man(b1-4)GlcNAc(b1-4)GlcNAc
# Method in brief: as §1
# [4] = target: Neu5Ac(a2-3)Gal(b1-4)GlcNAc(b1-2)[Neu5Ac(a2-3)Gal(b1-4)GlcNAc(b1-6)]Man(a1-6)[Neu5Ac(a2-3)Gal(b1-4)GlcNAc(b1-2)Man(a1-3)][GlcNAc(b1-4)]Man(b1-4)GlcNAc(b1-4)GlcNAc
# Method in brief: as §1
# [5] = target: Neu5Ac(a2-3)Gal(b1-4)GlcNAc(b1-3)Gal
# Method in brief: as §1
# [6] = target: Neu5Ac(a2-3)Gal(b1-4)GlcNAc(b1-3)Gal(b1-3)GlcNAc
# Method in brief: as §1
# [7] = target: Neu5Ac(a2-3)Gal(b1-4)GlcNAc(b1-3)Gal(b1-4)GlcNAc
# Method in brief: as §1
# [8] = target: Neu5Ac(a2-3)Gal(b1-4)GlcNAc(b1-3)Gal(b1-4)GlcNAc(b1-2)Man(a1-3)[Neu5Ac(a2-3)Gal(b1-4)GlcNAc(b1-3)Gal(b1-4)GlcNAc(b1-2)Man(a1-6)]Man(b1-4)GlcNAc(b1-4)GlcNAc
# Method in brief: as §1
# [9] = target: Neu5Ac(a2-3)Gal(b1-4)GlcNAc(b1-3)Gal(b1-4)GlcNAc(b1-3)Gal(b1-4)GlcNAc
# Method in brief: as §1
# [10] = target: Neu5Ac(a2-3)Gal(b1-4)GlcNAc(b1-3)Gal(b1-4)GlcNAc(b1-3)Gal(b1-4)GlcNAc(b1-2)Man(a1-3)[Neu5Ac(a2-3)Gal(b1-4)GlcNAc(b1-3)Gal(b1-4)GlcNAc(b1-3)Gal(b1-4)GlcNAc(b1-2)Man(a1-6)]GalNAc
# Method in brief: as §1
# [11] = target: Neu5Ac(a2-3)Gal(b1-4)GlcNAc(b1-3)Gal(b1-4)GlcNAc(b1-3)GalNAc
# Method in brief: as §1
# [12] = target: Neu5Ac(a2-3)Gal(b1-4)GlcNAc(b1-3)Gal(b1-4)GlcNAc(b1-3)[Neu5Ac(a2-3)Gal(b1-4)GlcNAc(b1-3)Gal(b1-4)GlcNAc(b1-6)]GalNAc
# Method in brief: as §1
# [13] = target: Neu5Ac(a2-3)Gal(b1-4)GlcNAc(b1-3)Gal(b1-4)GlcNAc(b1-6)[Gal(b1-3)]GalNAc
# Method in brief: as §1
# [14] = target: Neu5Ac(a2-3)Gal(b1-4)GlcNAc(b1-3)Gal(b1-4)[Fuc(a1-3)]GlcNAc
# Method in brief: as §1
# [15] = target: Neu5Ac(a2-3)Gal(b1-4)GlcNAc(b1-3)GalNAc
# Method in brief: as §1
# [16] = target: Neu5Ac(a2-3)Gal(b1-4)GlcNAc(b1-3)[Neu5Ac(a2-3)Gal(b1-4)GlcNAc(b1-6)]GalNAc
# Method in brief: as §1
# [17] = target: Neu5Ac(a2-3)Gal(b1-4)GlcNAc(b1-6)GalNAc
# Method in brief: as §1
# [18] = target: Neu5Ac(a2-3)Gal(b1-4)GlcNAc(b1-6)[Gal(b1-3)]GalNAc
# Method in brief: as §1
# [19] = target: Neu5Ac(a2-3)Gal(b1-4)GlcNAc(b1-6)[Neu5Ac(a2-3)Gal(b1-3)]GalNAc
# Method in brief: as §1
# [20] = target: Neu5Ac(a2-3)Gal(b1-4)GlcNAc6S
# Method in brief: as §1
# [21] = target: Neu5Ac(a2-3)Gal(b1-4)[Fuc(a1-3)]GlcNAc
# Method in brief: as §1
# [22] = target: Neu5Ac(a2-3)Gal(b1-4)[Fuc(a1-3)]GlcNAc(b1-2)Man
# Method in brief: as §1
# [23] = target: Neu5Ac(a2-3)Gal(b1-4)[Fuc(a1-3)]GlcNAc(b1-3)Gal
# Method in brief: as §1
# [24] = target: Neu5Ac(a2-3)Gal(b1-4)[Fuc(a1-3)]GlcNAc(b1-3)Gal(b1-4)GlcNAc
# Method in brief: as §1
# [25] = target: Neu5Ac(a2-3)Gal(b1-4)[Fuc(a1-3)]GlcNAc(b1-3)Gal(b1-4)[Fuc(a1-3)]GlcNAc(b1-3)Gal(b1-4)[Fuc(a1-3)]GlcNAc
# Method in brief: as §1
# [26] = target: Neu5Ac(a2-3)Gal(b1-4)[Fuc(a1-3)]GlcNAc(b1-3)GalNAc
# Method in brief: as §1
# [27] = target: Neu5Ac(a2-3)Gal(b1-4)[Fuc(a1-3)]GlcNAc(b1-6)[Gal(b1-3)]GalNAc
# Method in brief: as §1
# [28] = target: Neu5Ac(a2-3)Gal(b1-4)[Fuc(a1-3)]GlcNAc(b1-6)[Neu5Ac(a2-3)Gal(b1-3)]GalNAc
# Method in brief: as §1
# [29] = target: Neu5Ac(a2-3)Gal(b1-4)[Fuc(a1-3)]GlcNAc6S
# Method in brief: as §1
# [30] = target: Neu5Ac(a2-3)Gal6S(b1-4)GlcNAc
# Method in brief: as §1
# [31] = target: Neu5Ac(a2-3)Gal6S(b1-4)[Fuc(a1-3)]GlcNAc
# Method in brief: as §1
# Neu5Ac(a2-3)GalNAc = target: Neu5Ac(a2-3)GalNAc
# Method in brief: as §1
# [32] = target: Neu5Ac(a2-3)GalNAc(b1-4)GlcNAc
# Method in brief: as §1
# [33] = target: Neu5Ac(a2-3)[GalNAc(b1-4)]Gal(b1-4)Glc
# Method in brief: as §1
# [34] = target: Neu5Ac(a2-3)[GalNAc(b1-4)]Gal(b1-4)GlcNAc
# Method in brief: as §1
# [35] = target: Neu5Ac(a2-3)[GalNAc(b1-4)]Gal(b1-4)GlcNAc(b1-3)GalNAc
# Method in brief: as §1
# [36] = target: Neu5Ac(a2-3)[Neu5Ac(a2-6)]GalNAc
# Method in brief: as §1
binder,measurement,setting,value
B1,glycan array binding signal (z-score),[1],0.415
same,glycan array binding signal (z-score),[2],-0.662
same,glycan array binding signal (z-score),[3],-0.185
same,glycan array binding signal (z-score),[4],0.321
same,glycan array binding signal (z-score),[5],-0.274
same,glycan array binding signal (z-score),[6],-0.688
same,glycan array binding signal (z-score),[7],-0.497
same,glycan array binding signal (z-score),[8],-0.331
same,glycan array binding signal (z-score),[9],-0.784
same,glycan array binding signal (z-score),[10],3.84
same,glycan array binding signal (z-score),[11],-0.244
same,glycan array binding signal (z-score),[12],0.139
same,glycan array binding signal (z-score),[13],-0.152
same,glycan array binding signal (z-score),[14],-0.466
same,glycan array binding signal (z-score),[15],-0.26
same,glycan array binding signal (z-score),[16],-0.445
same,glycan array binding signal (z-score),[17],-0.544
same,glycan array binding signal (z-score),[18],-0.412
same,glycan array binding signal (z-score),[19],-0.097
same,glycan array binding signal (z-score),[20],-0.321
same,glycan array binding signal (z-score),[21],-0.262
same,glycan array binding signal (z-score),[22],1.01
same,glycan array binding signal (z-score),[23],-0.45
same,glycan array binding signal (z-score),[24],-0.379
same,glycan array binding signal (z-score),[25],-0.455
same,glycan array binding signal (z-score),[26],0.938
same,glycan array binding signal (z-score),[27],1.95
same,glycan array binding signal (z-score),[28],2.16
same,glycan array binding signal (z-score),[29],0.208
same,glycan array binding signal (z-score),[30],-0.132
same,glycan array binding signal (z-score),[31],-0.667
same,glycan array binding signal (z-score),Neu5Ac(a2-3)GalNAc,0.102
same,glycan array binding signal (z-score),[32],-0.462
same,glycan array binding signal (z-score),[33],-0.291
same,glycan array binding signal (z-score),[34],-0.209
same,glycan array binding signal (z-score),[35],-0.192
same,glycan array binding signal (z-score),[36],-0.223
